Test results taken from PubChem BioAssay AID2546 (National Center for Advancing Translational Sciences (NCATS), 2010).
Among all 310,000 compounds or so, about 11,000 (3.5%) were called active. This list was built around the results that the source calls inconclusive (neither active nor inactive); the mix of calls is not that of the screen. The call rests on the fitted dose curve; in most records, active means well fitted inhibition curve with a large enough effect; inconclusive means small, poorly fitted or top-dose-only effect, or effect the other way; inactive means flat fitted curve, though single readings scatter. Potencies of inconclusive entries are left out as doubtful fits.

experiment: VP16 counterscreen qHTS for inhibitors of ROR gamma transcriptional activity; details: Drosophila S2 Gal4-VP16 UAS-luciferase, luminescence, 20 h; activity, negative = inhibition: at 53.6 µM (top of the series);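 further: Gal4-VP16 expression switched on by copper sulfate through the metallothionein promoter; nearly all actives have a fitted effect of over 50% in size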
On the % scale 0 is the no-effect control and ±100 the full control effect; potency means the concentration at half of the fitted maximal effect; tags describe the fitted curve by direction and shape.

| SMILES | Potency | activity, negative = inhibition |
| --- | --- | --- |
| CC(=O)Nc1nc2c(ccc3ccccc32)s1 | inactive | – |
| Cc1c(C(=O)OCC(C)C)[nH]c2c1C(=O)CC(c1cccs1)C2 (stereo unspecified) | inconclusive [inhibitor, single point] | – |
| Cc1ccc2nc(/N=C(\N)NC(=O)NC3CCCCC3)nc(C)c2c1 | active: 7.08 µM | – |
| Cc1ccc(-c2cc(-c3cccs3)[nH]n2)c(O)c1 | inconclusive [inhibitor, single point] | – |
| COc1ccc(CCC(=O)NCCNC(=O)CCc2ccc(OC)cc2)cc1 | inactive | – |
| CC(C)Cc1nnc(NC(=O)CCC(=O)N2CCN(Cc3ccc(F)cc3)CC2)s1 | inactive | – |
| O=C(CCc1ccccc1)NC(c1cccs1)c1cc(Cl)c2cccnc2c1O (stereo unspecified) | active: 0.794 µM | – |
| Cc1ccc(C(=O)N2CCOCC2)cc1S(=O)(=O)N1CCCCC1 | inactive | – |
| Cn1c(=O)c2c(nc(NCc3ccc4c(c3)OCO4)n2Cc2ccc(F)cc2)n(C)c1=O | active: 10 µM | – |
| O=[N+]([O-])c1ccc(/C=N/n2cnc3ccccc32)s1 | inconclusive [inhibitor, single point] | – |
| C/C(=N\NC(=S)NC1CCCCC1)c1ccc(Cl)c(Cl)c1 | active: 2.82 µM | – |
| O=C(NCCN1CCOCC1)/C(=C\c1ccccc1F)NC(=O)c1ccccc1 | inactive | – |
| CN(C)c1ccc(/C=N/N2C(=S)SC(C)(C)C2N(O)C(=O)Nc2ccc([N+](=O)[O-])cc2)cc1 (stereo unspecified) | inactive | – |
| CCCCN(CCCC)C(=O)CSc1nnc2n(C)c(=O)c3c4c(sc3n12)CCCC4 | active: 4.47 µM | – |
| O=C(c1cccs1)N1CCN(c2ccc([N+](=O)[O-])cc2F)CC1 | inactive | – |
| Clc1ccc(CON/C=N/c2ncnc3sccc23)c(Cl)c1 | inconclusive [inhibitor, single point] | – |
| COc1ccc(-c2csc(-c3cccs3)n2)cc1OC | inconclusive [activator, full curve] | – |
| O=C(CNC(=O)C(c1ccccc1)c1ccccc1)N/N=C\c1cccc(O)c1 | inconclusive [inhibitor, single point] | – |
| Cc1[nH]n(-c2ccccc2)c(=O)c1/C=N/Nc1nncc(-c2ccccc2)n1 | active: 0.0022 µM | – |
| O=c1ccn(CCOc2ccc(Cl)cc2)c(=O)[nH]1 | inconclusive [inhibitor, full curve, poor fit] | – |
| CCOC(=O)Cc1c(C)nc2c(-c3cccc(Br)c3)c[nH]n2c1=O | active: 14.1 µM | – |
| NNc1ccc(S(=O)(=O)N2CCCCC2)cn1 | inconclusive [inhibitor, single point] | – |
| COc1ccc(CNC(=O)Cn2cnc3c(=O)n(C)c(=O)n(C)c32)cc1 | inconclusive [inhibitor, single point] | – |
| COc1ccc(OC)c(C2C(C(=O)N(C)C)=C(C)Nc3nc4ccccc4n32)c1 (stereo unspecified) | inactive | – |
| COC(=O)c1c(-c2ccccc2)c(-c2ccccc2)nn(C)c1=O | inactive | – |
| CC(NC(=O)C1CCC1)c1ccc(Cl)cc1 (stereo unspecified) | inactive | – |

| SMILES | Potency | activity, negative = inhibition |
| --- | --- | --- |
| Clc1nc(CN2CCCCC2)nc2sc3c(c12)CCC3 | inconclusive [activator, single point] | – |
| Cc1ccc(/C=C/C(=O)Nc2ncc(C)s2)o1 | inconclusive [inhibitor, single point] | – |
| Cc1nn(-c2ccc(F)cc2)c(C)c1NS(=O)(=O)c1ccc2ccccc2c1 | inconclusive [inhibitor, single point] | – |
| O=C(Nc1ccccc1Br)c1ccc(OC(=S)N2CCOCC2)cc1 | inactive | – |
| Cc1cc(C)c2nc(NC(=O)c3cc(C)on3)sc2c1 | inconclusive [inhibitor, partial curve] | – |
| Cc1n[nH]c(=O)c2c(NC(=O)CSc3nc4ccccc4c(=O)n3C(C)C)oc(C)c12 | inactive | – |
| CCN(CC)CCNC(=O)c1ccc(NC(=O)c2ccccc2-c2ccc(C(F)(F)F)cc2)cc1 | inconclusive [inhibitor, single point] | – |
| CN1CCN(C2=C(Cl)C(=O)N(c3ccc(Cl)c(Cl)c3)C2=O)CC1 | inconclusive [inhibitor, single point] | – |
| COc1ccc(NC(=O)C2CCCN(c3nccc(C)n3)C2)cc1 (stereo unspecified) | – | inactive: -3.17% [at 10 µM] |
| O=[N+]([O-])c1ccc(COc2cccc(CNc3ccc(Br)cc3)c2)cc1 | inconclusive [inhibitor, single point] | – |
| COc1ccc2c3c(c(=O)oc2c1)C1O[C@](CCCCN2C(=O)c4ccccc4C2=O)(Cc2cc(OC)c(OC)cc21)O3 | – | inactive: 2.08% [at 10 µM] |
| CCOc1ccc(-c2nc(CSCC(=O)NCCN3CCOCC3)c(C)o2)cc1 | inconclusive [inhibitor, partial curve] | – |
| CC(C)[C@H](CO)Nc1nc(NCc2ccc(S(N)(=O)=O)cc2)c2ncn(C(C)C)c2n1 | inactive | – |
| CCCC(=O)c1ccc2c(c1)OCCO2 | inconclusive [inhibitor, single point] | – |
| COC(=O)c1c(-c2ccncc2)csc1NC(=O)c1ccoc1C | inconclusive [activator, partial curve, poor fit] | – |
| CCOC(=O)CN=C1CC(C)(C)CC2=C1Sc1ncnc(N(C)C)c1N2 | inconclusive [inhibitor, single point] | – |
| c1ccc(N2CCOCCOCCOCCOCCOCC2)cc1 | inactive | – |
| O=C1C(C2=NC(c3ccccn3)C3C(=O)N(c4ccc(Cl)cc4Cl)C(=O)C23)=C(O)c2ccccc21 (stereo unspecified) | inconclusive [inhibitor, single point] | – |
| Cc1ccc(C(=O)Nc2ccc3ccccc3n2)cc1 | inconclusive [inhibitor, single point] | – |
| Cc1ccc(NC(=S)/N=C(\N)Nc2nc(C)c3ccccc3n2)cc1C | active: 1 µM | – |
| Cc1cccc(OCCC(=O)Nc2ccc(Cl)cc2F)c1 | inactive | – |
| O=C(O)c1ccccc1N=Cc1c(O)n(-c2nccs2)c(=O)c2ccccc12 | inactive | – |
| Cc1ccc(F)cc1NC(=O)N1CCN(c2ccnc3cc(Cl)ccc23)CC1 | inactive | – |
| Cc1csc2ncnc(N3CCN(S(=O)(=O)c4cccc(C(F)(F)F)c4)CC3)c12 | active: 10 µM | – |
| Cc1nnc(N/N=C/c2ccc(-c3ccccc3F)o2)n1N | inconclusive [inhibitor, single point] | – |
| N#CNC(=Nc1cccc(F)c1)SCc1ccccc1F | inconclusive [inhibitor, single point] | – |

| SMILES | Potency | activity, negative = inhibition |
| --- | --- | --- |
| Cc1ccc2c(CN3CCC(C)CC3)cc(=O)oc2c1 | inconclusive [inhibitor, single point] | – |
| CS(=O)(=O)N1CCC(C(=O)Nc2cccc([N+](=O)[O-])c2)CC1 | inactive | – |
| Cc1cccc(N2CCN(C(=O)C3CCN(S(=O)(=O)c4c(C)noc4C)CC3)CC2)c1C | inconclusive [inhibitor, single point] | – |
| Brc1ccc(-c2nn3c(-c4ccncc4)nnc3s2)o1 | inactive | – |
| CCc1ccc2c(c1)CCCN2C(=O)c1ccccc1C(=O)O | inconclusive [inhibitor, single point] | – |
| CC(c1n[nH]c(=S)n1-c1ccc(F)cc1)N1CCCCC1 (stereo unspecified) | inconclusive [inhibitor, single point] | – |
| Cc1ccccc1-c1ccc2ncnc(NCc3cccnc3)c2c1 | inconclusive [inhibitor, single point] | – |
| CCCCCC(=O)NNC(=S)NC(=O)c1ccc([N+](=O)[O-])cc1 | active: 6.31 µM | – |
| Clc1ccccc1-c1ccc(/C=N/Nc2nncc(-c3ccccc3)n2)o1 | active: 10 µM | – |
| CCC(C)(C)c1ccc(OCCCC[n+]2ccccc2)c(C(C)(C)CC)c1 | active: 17.8 µM | – |
| CCN(Cc1ccccc1)S(=O)(=O)c1ccc(C(=O)N(CCCN(C)C)c2nc3ccc(F)cc3s2)cc1 | inconclusive [inhibitor, single point] | – |
| COc1ccc2cc1Oc1ccc(cc1)CC1c3c(cc(OC)c4c3Oc3cc5c(cc3O4)CCNC5C2)CCN1C (stereo unspecified) | active: 7.08 µM | – |
| CC(=O)Nc1cccc(OCC(=O)NCCC2=CCCCC2)c1 | inconclusive [activator, single point] | – |
| COC(=O)c1ccc(Cn2c(O)c(N=NC(N)=S)c3ccccc32)o1 | active: 12.6 µM | – |
| COC(=O)c1ccccc1NC(=O)c1cc([N+](=O)[O-])nn1Cc1ccccc1 | inconclusive [activator, single point] | – |
| Cc1nc2ccccn2c1C(=O)NNS(=O)(=O)c1ccc(C(C)(C)C)cc1 | active: 15.8 µM | – |
| CCc1ccc(NC(=O)c2ccc3c(=O)n4c(nc3c2)CCCCC4)cc1 | inactive | – |
| CCc1ccc(Oc2ncnc(N)c2[N+](=O)[O-])cc1 | inconclusive [activator, single point] | – |
| Cc1ccc(C(=O)NNC(=O)c2cc3cc4ccccc4nc3s2)cc1 | inconclusive [inhibitor, single point] | – |
| Cc1[nH]c2ccccc2c1C(C#N)(C#N)C1C(=O)c2ccccc2C1=O | inactive | – |
| CCOC(=O)N1CCN(C(=S)NC2CCCCC2)CC1 | inconclusive [inhibitor, single point] | – |
| CC(Oc1ccc(-n2cnnn2)cc1)C(=O)O (stereo unspecified) | – | inactive: 3.61% [at 10 µM] |
| COC(=O)c1c(N)nc(C)n1-c1ccc(OC)cc1 | inactive | – |
| Cc1ccc(Nc2nc(-c3ccccc3)cs2)nc1 | inconclusive [inhibitor, single point] | – |
